# Assay results from PubChem BioAssay AID1347120 (National Center for Advancing Translational Sciences (NCATS), 2019).
# Hit rate of the full screen: of about 390,000 compounds, about 930 (0.24%) were called active. Inconclusive means that the source gave no clear call. Such entries were picked first, then a sample of the others. Calls follow the shape of the dose curve; as a rule, active = well fitted activation curve with a large enough effect; inconclusive = small, poorly fitted or top-dose-only effect; inactive = no such curve, though single readings can be large or run the other way. Potencies of inconclusive entries are doubtful fits and often do not repeat.
# Assay: qHTS for Suppressors of FUS Proteinopathy: Primary screen using FUS-linked yeast assay; also: nearly all actives have a fitted effect of over 55% in size
# Details: S. cerevisiae FUS-expressing, OD600, 24 h; Potency: growth rescue; series mostly up to 76.6 µM
# In short: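 FUS-expressing yeast, raffinose-pregrown, induced in 2% galactose minimal medium at OD 0.005; compounds in a dilution series, 24hr at 30C. Growth restoration read as absorbance at 600 nm. CP55940 positive control, DMSO negative.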
# Potency is read from the fitted curve at half-maximal effect; tags tell the direction and shape of the fitted curve.
row,SMILES,Potency
1,CCc1ccc(CNc2ccc(O)cc2)cc1,"inconclusive: 22.4 µM [activator, partial curve]"
2,Cc1c(Cl)cccc1Nc1nc(N)nc(CSc2nc3ccccc3s2)n1,"inconclusive: 35.5 µM [activator, partial curve, poor fit]"
3,Cc1cc(NC(=O)C(C)SCC(=O)Nc2cc(C(F)(F)F)ccc2N2CCCCC2)no1 (configuration not stated),"inconclusive: 22.4 µM [activator, partial curve, poor fit]"
4,COC(=O)/C=C1\S/C(=N\N=C\CC(=O)OC)NC1=O,active: 31.6 µM
5,CCSc1ccc([C@@H]2[C@H]3C(=O)N(C)C(=O)[C@H]3[C@]3(C(=O)OC)CCCCN23)cc1,"inconclusive: 17.8 µM [activator, single point]"
6,CC1CN(C(=O)Nc2ccccc2)c2ccccc2-[n+]2ccsc21 (configuration not stated),"inconclusive: 12.6 µM [activator, partial curve, poor fit]"
7,CCOC(=O)N1CCN(C(c2ccc(Cl)cc2)c2sc3nc(C)nn3c2O)CC1 (configuration not stated),"inconclusive: 15.8 µM [activator, partial curve, poor fit]"
8,CC(C)C[C@H](NC(=O)c1nc[nH]c1C(=O)NCC(=O)OCc1ccccc1)C(=O)OCc1ccccc1,"inconclusive: 15.8 µM [activator, partial curve]"
9,CC(C)c1ccc(S(=O)(=O)N2CCN(C(=O)CCNC(=O)Nc3ccccc3)CC2)cc1,"inconclusive: 25.1 µM [activator, single point]"
10,CC(C)c1nn2c(=O)cc(COC(=O)c3ccccc3NC(=O)C3CCCCC3)nc2s1,inactive
11,O=C(COC(=O)c1ccccc1)Nc1cccc(S(=O)(=O)N2CCCCC2)c1,"inconclusive: 35.5 µM [activator, partial curve, poor fit]"
12,N#Cc1ccccc1OCCn1cncn1,inactive
13,CC(C)OC(=O)c1c(NC(=O)C2c3ccccc3Oc3ccccc32)sc2c1CCCC2,inactive
14,Cc1ccc(C)c(N2CCN(C(=O)c3ccc4c(c3)N(Cc3ccc(F)cc3)C(=O)c3ccccc3S4=O)CC2)c1 (configuration not stated),inactive
15,COC(=O)CN=C1OC(=O)N2C(=O)C3=C4[C@@H](C[C@H]5C(=O)N(c6ccccc6)C(=O)[C@H]5[C@H]4[C@@]12Cc1ccccc1)[C@H]1C(=O)N(c2ccccc2)C(=O)[C@H]1[C@H]3C,"inconclusive: 31.6 µM [activator, single point]"
16,N#CCCN(Cc1ccccc1)C(CCc1ccccc1)C(=O)NC1CCCCC1 (configuration not stated),"inconclusive: 14.1 µM [activator, partial curve]"
17,CCCOc1ccc(CNC(=O)c2ccc(-n3c(C)cc4c3CCC(C)C4)cc2)cc1 (configuration not stated),"inconclusive: 35.5 µM [activator, single point]"
